Data as given in the supplement of paper PMC11417369.
± gives the standard deviation of the averaged measurements. Some of the results follow.

Each sequence was assayed on PfAP2-EXP AP2 domain (GST-tagged) (assay: gcPBM binding intensity (ln(normalized median fluorescence intensity)); higher = stronger DNA binding).
In short: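 Binding of GST-tagged P. falciparum DNA-binding domains, expressed in E. coli and used at about 25 μg on average, was carried out for 1 h in 1× PBS containing 1% milk, 0.2 mg/ml BSA, 0.5% salmon testes DNA and 0.03% Triton X-100. The target was an Agilent 4 × 180k array of primer-extended double-stranded 36-bp intergenic genomic probes plus negative controls, read with Alexa488 anti-GST antibody at 488 nm. Binding intensity is the highest Masliner-normalised natural-log median intensity across replicate spots of either probe orientation.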

Sequence	gcPBM binding intensity (ln)
AATATATATATATTATCACACACTCACGTTTGACAA [CACACA_site8130]	8.61 ± 0.4
TATGATATATATAATACACACATATACATAAGATCT [CACACA_site1119]	8.48 ± 0.45
TAAAAAAAACGAACAAGTACACATAAAAAAAAATTA [XGTACX_site5982]	8.68 ± 0.38
ATTATATCATATATATGTACACATATATAACATGAT [XGTACX_site7]	8.38 ± 0.38
ACATAATTAACAAATACACACACACCCACCCACAAA [CACACA_site8069]	9.18 ± 0.65
TTCAATTTTTTATGAACACACAAAAAAAAAAAAAAA [CACACA_site2533]	8.14 ± 0.57
ATATATAAGGATGTCACACATAAATATTAACACTAA [CACACA_site5101]	8.39 ± 0.4
ATTTGTGATTTGTGTGTGCACGTATTTACAGAACAA [GTGCAC_site9498]	9.2 ± 0.26
AAGAAAAAATATATATATATATATATATATAATATG [TGCATGCA_negctrl_site417]	8.75 ± 0.042
TTATATTATTTTTATACATGCATTTCTATATATTTT [TGCATGCA_site164]	9.2 ± 0.3
TATATTAAATAAAAAGTGCATGTCTCATAAGATGGA [GTGCAC_site9520]	8.68 ± 0.38
ATAGGGAATTTATGCACACAGTTAAGGGGGAAAATT [CACACA_site5183]	9.43 ± 0.37
TATAAATAAAGCAGTACACACATTTATTTTAGATAC [CACACA_site7566]	8.65 ± 0.28
ATAAAATGTTAAGGGTGTACTTTACACATCTCCTAT [XGTACX_site4699]	8.34 ± 0.32
TTTATACTATAATTATGTACTTATAAAAGGAATAAA [XGTACX_site8027]	8.48 ± 0.39
TATATAAATATACATTGTACTCAACATTTTCATTAA [XGTACX_site3690]	8.47 ± 0.38
ATGTAAATACATATATGTACACAAATATATATATAT [XGTACX_site3537]	9.8 ± 0.35
ATAAACACATCTATATGTACATATATATATATATAC [XGTACX_site347]	8.79 ± 0.29
TGTATTAATAAAAATACACACATCATATTATAGAAA [CACACA_site7629]	8.4 ± 0.33
ATATATATATAAATATGTACATATATATATTATATA [XGTACX_site120]	9.35 ± 0.042
TATAAGATTATACAAAGTACATATAAATAATATATT [XGTACX_site1917]	8.24 ± 0.33
TGAAATAAAAAATATAGTACTCGTTCGTAACCAAAA [XGTACX_site413]	8.5 ± 0.31

Sequence	gcPBM binding intensity (ln)
ATGGGTTAAAAATGCACACAAAAAAATATACAGATA [CACACA_site4321]	8.92 ± 0.42
TCCTCTTTTATTTTTACACACGCGTAAACATATATA [CACACA_site667]	9.1 ± 0.49
TTAAAAAAAGATTATACACACACATATATAAACATA [CACACA_site8136]	8.6 ± 0.42
ATTTATCCAAAAAAATGTACAGGATAATTTGTTCAT [XGTACX_site7737]	8.58 ± 0.28
TATTATGCCTTTAATATACACACTAATATTTTTTTG [CACACA_site2045]	8.57 ± 0.31
CATAATACCTATAACACACACAATTATACATAAACT [CACACA_site7506]	8.69 ± 0.49
TATAAAAATTAATATTGTACGTTTTATGAAAATAAA [XGTACX_site8237]	8.3 ± 0.32
GGGTTCAATTTAAAGAGTACAAAAAATGTAGGTCAT [XGTACX_site5290]	8.78 ± 0.38
TTTTAATAAACAAAACGTACACATTATTATTATATA [XGTACX_site335]	8.36 ± 0.12
TTTGTAGTTTGCACATGTACACATTTCAAAATAAAG [XGTACX_site7568]	8.6 ± 0.2
AGAGAGAAAGTTATAACATGCAACAATTTTTAGAAC [TGCATGCA_site96]	9.15 ± 0.38
TTTTTTTTTTTGTGGGTGCGTTTATAAAAACAGGAA	9.14 ± 0.26
TTTTTTTCTTGTTTTAAATAATATACTGGAAAAAAA [CACACA_negctrl_site585]	8.22 ± 0.59
AATATATACATATATTGTACATATAGTTTCTTGCAT [XGTACX_site7871]	8.61 ± 0.33
TTTCCATATTGTGGATGTACGTTTTGAGGTTTTTAC [XGTACX_site3362]	8.51 ± 0.52
ATATATATTTCTTAAAGTACATAATAATAAAAATAT [XGTACX_site8981]	8.52 ± 0.4
AAAGCACCCAGGCACACACACAAAGGAAAAGAAAAA [CACACA_site232]	8.54 ± 0.4
ATAATTATTAAGAGAACATGCAAAATATATATGTTT [TGCATGCA_site503]	8.9 ± 0.33
AATACAATAAAATAGTGTACATATATATTATGTATA [XGTACX_site8258]	8.39 ± 0.3
ATATATATATATATTTGTACGTATTATGTATTTTTT [XGTACX_site3530]	10 ± 0.53
GAATAAATTAAAAACGCATGTATCATTACTACATAA [TGCATGCA_site111]	8.37 ± 0.33
TTTATATTATACTATACATGCATATAATAAAGGTCA [TGCATGCA_site934]	8.68 ± 0.17
